The results in this text go back to PubChem BioAssay AID488969 (Vanderbilt High Throughput Screening Facility, 2010).

The structures appear in SMILES notation. The full ranking holds about 110,000 compounds; the median of “z-score” is about -0.1, and the highest 2% start at about 2. The list shows a part of the results. Calls of active or inactive are those of the source.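 The calls were made as follows: active = z-score in the third read window above 3 or below -3; inactive = the rest.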

The target in this experiment is Metabotropic glutamate receptor 8 (Rattus norvegicus) (UniProt P70579). In words: rat mGluR8 modulators via GIRK flux, primary screen, cell-based, thallium flux, HTS (AID 488969). The following applies: HEK293 rat mGluR8, GIRK (G protein-gated inwardly rectifying potassium channel) thallium flux, FluoZin2; at 10 µM; stronger effect = higher value; submaximal glutamate (EC20) added with thallium.
Chain of UniProt P70579 (P70579 whole entry, looked up): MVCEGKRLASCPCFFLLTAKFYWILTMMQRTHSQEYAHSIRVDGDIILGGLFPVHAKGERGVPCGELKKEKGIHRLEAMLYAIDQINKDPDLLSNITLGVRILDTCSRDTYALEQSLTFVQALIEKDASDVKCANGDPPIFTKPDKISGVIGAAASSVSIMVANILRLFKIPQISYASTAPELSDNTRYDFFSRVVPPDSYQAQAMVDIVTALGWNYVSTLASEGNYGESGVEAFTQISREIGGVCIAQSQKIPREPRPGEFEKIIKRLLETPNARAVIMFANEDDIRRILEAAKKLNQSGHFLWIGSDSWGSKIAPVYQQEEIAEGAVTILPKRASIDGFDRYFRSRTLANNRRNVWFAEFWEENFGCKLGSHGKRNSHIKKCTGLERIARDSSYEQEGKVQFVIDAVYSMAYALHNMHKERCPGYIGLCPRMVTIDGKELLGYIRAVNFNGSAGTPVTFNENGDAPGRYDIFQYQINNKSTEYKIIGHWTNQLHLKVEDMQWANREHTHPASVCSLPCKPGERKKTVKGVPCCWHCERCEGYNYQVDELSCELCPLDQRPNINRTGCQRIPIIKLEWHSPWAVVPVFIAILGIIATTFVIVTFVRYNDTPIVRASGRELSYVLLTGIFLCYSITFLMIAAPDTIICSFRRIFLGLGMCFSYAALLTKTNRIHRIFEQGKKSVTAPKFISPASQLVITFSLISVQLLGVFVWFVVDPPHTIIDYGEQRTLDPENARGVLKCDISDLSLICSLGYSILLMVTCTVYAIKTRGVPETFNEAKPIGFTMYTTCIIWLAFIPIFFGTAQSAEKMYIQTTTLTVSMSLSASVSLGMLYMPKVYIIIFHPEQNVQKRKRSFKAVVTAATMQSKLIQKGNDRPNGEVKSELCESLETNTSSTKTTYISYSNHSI
Consider `O=C(NCc1ccc2c(c1)OCO2)c1cc(-n2cnnc2)ccc1Cl`, for which the z-score was -0.0397.

`Cc1ccc(C)c(OCC(O)CN2C(C)CCCC2C)c1` (stereo not drawn): the z-score is active: 3.05. `O=C(CSc1nnnn1Cc1ccccc1)NCC(=O)c1ccccc1`: the z-score was -0.00225.

With `COc1ccccc1CNC(=O)COC(=O)C1=COCCO1`, the z-score is 0.183.

`COc1ccc(Oc2coc3c(CN(C)C)c(O)ccc3c2=O)cc1` displayed a z-score of -0.116.

`O=c1[nH]c(NCCO)nc2c1C1(CCCC1)Cc1ccccc1-2` had a z-score of -0.677. Next, `CC(C)CC(=O)N1CCC(N2CCN(c3ccccc3)CC2)CC1`: 0.146. Next, `CCOC(CNC(=O)c1cc(C)nn1-c1ccccc1)OCC`: 0.00918. To `O=S(=O)(NCc1cc(-c2ccccc2Cl)no1)c1ccc(Cl)cc1` belongs -0.33; to `COc1ccc(C(=O)N2CCN(C(=O)Cc3ccccc3)CC2)cc1OC`, 0.326; to `CCN1/C(=C/c2ccc3ccccc3[n+]2CC)C=Cc2ccccc21`, 1.38. On to `O=S(=O)(c1ccccc1)c1nc(-c2cccs2)oc1NCCCn1ccnc1`, for which the z-score was -0.173. To `CC(=O)Oc1ccc(C(=O)Nn2cnnc2)cc1` belongs -0.0435. To `N#Cc1nc(-c2cccs2)oc1N1CCN(c2ccccc2)CC1` belongs -0.374; to `CS(=O)(=O)N1CCCC(C(=O)NCCCN2CCOCC2)C1` (stereo not drawn), -0.405. To `COc1ccccc1C(=O)Nc1ccc2c(c1)nc(CN1CCN(C(C)=O)CC1)n2C` belongs -0.426; to `Cc1cccc(OCC(O)Cn2c(=N)n(CCN3CCCCC3)c3ccccc32)c1` (stereo not drawn), active: 5.06; to `CCCCCSc1nc2c(c(=O)[nH]c(=O)n2C)n1C`, -0.00746. The compound `CCc1ccc(-c2cc(C(=O)NCc3ccccn3)c3ccccc3n2)cc1` returned a z-score of -0.425. To `O=[N+]([O-])c1ccc(CSc2nnc(SCc3ccc(Cl)cc3)s2)cc1` belongs 0.0566; to `COc1ccc(CCNC(=O)c2cc(C(=O)c3cc(C)ccc3O)cn(CCc3ccc(OC)cc3)c2=O)cc1`, -0.303. Next, `CCn1nnnc1-c1ccc(OC)c(S(=O)(=O)Nc2ccc(C(=O)OC)cc2)c1`: -0.213; `CCOC(=O)C1=C(O)/C(=C\c2ccc(CNC(=O)C(=O)Nc3ccccc3)o2)N=C1C`: -1.36. To `Cc1cccc(-n2c(=S)[nH]c3c(oc4ccccc43)c2=O)c1` belongs 0.184; to `Cc1[nH]nc2c1C(c1ccc(-c3ccccc3C#N)o1)C(C#N)=C(N)O2` (stereo not drawn), -0.475; to `CCOC(=O)Cc1csc(N/N=C/c2ccccc2)n1`, -0.453. Turning to `CCOc1ccc(C(=O)Nc2c3c(nn2-c2cccc(Cl)c2)CS(=O)C3)cc1` (stereo not drawn), the z-score is -0.429. Next, `CCCC(=O)Nc1ccc(NC(=O)C23CC4CC(CC(C4)C2)C3)cn1`: active: 5.76; `CCN1CCN(C(=O)CCCn2c(C)c3cnn(-c4ccccc4)c(=O)c3c2C)CC1`: 0.177; `CNC(=O)COC(=O)c1cc2c(C)nn(-c3ccc(F)cc3)c2s1`: -0.0264. Next, `COC(=O)c1cc(NC(=O)CN(c2ccc3c(c2)OCO3)S(C)(=O)=O)ccc1Cl`: -0.226; `Cc1cc(NS(=O)(=O)c2ccc(NC(=O)COc3ccc(Cl)cc3)cc2)no1`: -0.253; `CC(C)n1c(/N=C/c2c[nH]c3ccccc23)nc2ccccc21`: -0.751. To `S=C(Nc1cccc(Cl)c1Cl)Nn1cnnc1` belongs -0.236; to `COc1ccc(CN2CCn3ncc(C(=O)Nc4cccc(C)c4)c3C2=O)cc1`, -0.137. Consider `Cc1oc(-c2cccs2)nc1CS(=O)CC(=O)NC1CCCCCC1` (stereo not drawn), for which the z-score was -0.2. `CC(C)Oc1ccccc1C1Nc2ccccc2C(=O)N1c1ccc2c(c1)OCCO2` (stereo not drawn): the z-score is active: -4.87. Turning to `Fc1ccc(CSc2nsc(SCc3ccc(F)cc3)n2)cc1`, the z-score was found to be 1. Next, `Cc1c(C(=O)Nc2ccncc2)oc2c1C(=O)CC(C)(C)C2`: -0.597. Next, `COc1ccc(CCNc2oc(-c3cccc4ccccc34)nc2P(=O)(OC)OC)cc1OC`: -0.375; `CCC(C)NC(=O)c1cc(-c2ccccc2O)on1` (stereo not drawn): 1.37; `CC12CN3CC(C)(CN(C1)C3c1ccccc1Cl)C2O` (stereo not drawn): 0.177.

Regarding `CCN(CC)CC#CCC1(O)c2ccccc2-c2ccccc21`, the z-score was -0.382. To `COc1ccccc1CC(=O)NCc1ccc2c(c1)OCO2` belongs 0.129; to `COCCn1c(=NC(C)=O)sc2cc([N+](=O)[O-])ccc21`, -0.298; to `COc1ccc(NC(=S)N2CCNC(=O)C2CC(=O)Nc2cccc(Cl)c2C)cc1` (stereo not drawn), -0.0109. To `COc1ccc2nc(NC(=O)CCNS(=O)(=O)c3ccc4c(c3)oc(=O)n4C)sc2c1` belongs 0.223. Turning to `CCOC(=O)C1(O)CSc2nc3sc(C(=O)O)c(C)c3c(=O)n21` (stereo not drawn), the z-score is -0.357. To `CCN1C(c2ccccc2)=C(c2ccccc2)S/C1=C/C=C1\SC(=S)N(C)C1=O` belongs -0.0724; to `CC(=O)c1ccc(NC(=S)NC(=O)CC(C)C)cc1`, -0.0881.

For `O=[N+]([O-])c1cccnc1N1CCC(c2cc(-c3cccc(C(F)(F)F)c3)n[nH]2)CC1`, the z-score was -0.378. Regarding `O=C(N/N=C/c1ccccc1F)c1csc2c1CCCC2`, the z-score was -0.0423. To `COc1cc([N+](=O)[O-])ccc1NC(=O)C[n+]1ccccc1C` belongs -0.116. Next, `CCN(CC)CCNC(=O)CCCNC(=O)Cn1cnc2sc(C)c(C)c2c1=O`: 0.445; `Cc1ccc(Nc2nnc(SC3CCOC3=O)s2)cc1` (stereo not drawn): -0.0252. Next, `CCC(=O)n1nc(-c2ccc(OC)cc2)nc1SC`: -0.632. `CN1CCN(C(=O)C2CCCCC2C(=O)O)CC1` (stereo not drawn) returned a z-score of 0.0479.

Compound `O=C(NC(=O)c1cccc(Cl)c1)OC[C@@H]1CCCN2CCCCC12` (stereo partly drawn) gave a z-score of -0.259. To `CCOC(=O)c1cccc(Nc2ncnc3ccc(C)cc23)c1` belongs -1.58; to `Cc1cccc(-c2nnc(SCC(=O)NCc3ccc4c(c3)OCO4)n2C)c1`, 0.105. To `O=C(OCc1ccc(Cl)cc1)c1cnccn1` belongs 0.349; to `O=C(CCC1CCCC1)Nc1ccc([N+](=O)[O-])cn1`, -0.0597; to `Cc1cc(C)cc(NC(=O)Cc2ccc(-n3cccc3)cc2)c1`, -0.02. `CC1Cc2ccccc2N1C(=O)CSc1nnc2n1C(C)(C)Cc1ccccc1-2` (stereo not drawn): the z-score was -0.0372.

On to `O=C(CN1CCC(Cc2ccccc2)CC1)NC(=O)NCc1ccco1`, for which the z-score is -0.495. Compound `COC(=O)c1sccc1NC(=O)c1csc(C)c1` gave a z-score of -0.827.

Compound `C=CCNC(=O)COc1ccc(S(=O)(=O)Nc2ccc(OCC)cc2)cc1` returned a z-score of -0.591. In turn, `O=C1C(=O)N(CCN2CCOCC2)C(c2ccccn2)/C1=C(/O)c1ccc(F)cc1` (stereo not drawn) came in with a z-score of -0.519. To `O=C(COc1ncnc2cc([N+](=O)[O-])ccc12)N(CCc1ccccc1)Cc1ccccc1` belongs -0.0819; to `Cc1nc(CCN2C(=O)c3ccccc3C2=O)n[nH]1`, 0.233. Turning to `Cc1ccc(CC(=O)Nc2nncs2)cc1`, the z-score came out at 0.566. Next, `COc1ccc(CC(=O)Nc2c3c(nn2C(C)(C)C)CS(=O)C3)cc1` (stereo not drawn): 0.0357; `Cc1ccc(C(=O)Oc2oc(-c3ccco3)nc2C=Nc2ccccc2)cc1`: 0.176; `CCN(C(=O)CN1CCN(c2ccc(O)cc2)CC1)c1c(N)n(Cc2ccccc2)c(=O)[nH]c1=O`: 0.453. Next, `CCn1c(C(=O)N2CCC(C(=O)NCCCSC3CCCCC3)CC2)cc2sccc21`: 0.05; `Cc1nn(C)cc1CN(C)C(=O)CC12CC3CC(CC(C3)C1)C2`: -0.362; `CC(C)Cn1cnc2c(c(-c3ccccc3)c(-c3ccccc3)n2Cc2ccco2)c1=N`: active: 3.58. Next, `C[C@H](NC(=O)c1ccccc1Cl)C(=O)OC(C(=O)Nc1cc(C(F)(F)F)ccc1Cl)c1ccccc1` (stereo partly drawn): -0.215. With `O=C(N/N=C/c1c[nH]c2ccc(Br)cc12)c1ccn(Cc2ccc(Cl)cc2Cl)n1`, the z-score was -0.336. On to `Cn1c(=O)n(-c2cccc(Cl)c2)c(=O)c2c3c(sc21)COC(C)(C)C3`, for which the z-score worked out at 1.38. Next, `C/C(=N\N=C(c1ccccc1)c1ccccc1)c1cccs1`: -0.226; `CCCCn1nnnc1SCC(=O)NNC(=O)C1CCCCC1`: 0.676. Turning to `O=c1oc(-c2cccs2)nc2sc3c(c12)CCCC3`, the z-score is 0.0131.

`CCC(CC)NCc1ccc(OC)cc1OC` returned a z-score of 0.935. `Cn1c(CCNC(=O)c2cccs2)nnc1SCC(=O)N1CCN(c2ccccc2)CC1`: the z-score was -0.21. Next, `CCOC(=O)c1sc(=S)n(C)c1NC(=O)c1ccc(F)cc1`: -0.0851; `COc1ccc(CCNC(=O)Cn2nnc(-c3ccc(N(C)C)cc3)n2)cc1OC`: -0.0618. Next, `CCOC(=O)c1c(NC(=O)c2csc(C)c2)sc(C(C)=O)c1C`: -0.0265. The compound `COc1ccc(/C=C/c2c([N+](=O)[O-])c(=O)n(C)c(=O)n2C)cc1OC` returned a z-score of -0.0359. To `CCOC(=O)CSc1nnc(CNc2cccc(Cl)c2)n1C` belongs 1.12; to `O=C(Cc1ccc2c(c1)OCCO2)N1CCN(S(=O)(=O)c2cccc(Cl)c2Cl)CC1`, 0.22. To `Cc1cc(Cl)ccc1NC(=S)NCCCO` belongs -0.166; to `CC(/C=N/NC(=O)c1cc(-c2cccnc2)nc2c1c(C)nn2-c1ccccc1)=C\c1ccccc1`, 0.285.

`CCCCc1cc2c(c(NC(C)=O)n1)c(=O)oc1ccccc12` registered a z-score of 0.0335. Next, `CCCCN=C(Nc1ccc(Cl)cc1)c1cccnc1`: -0.27; `Cc1cccc(Cn2cnc3c(NS(C)(=O)=O)c(C)c(C)cc32)c1`: -0.78; `COc1ccc(OC)c(S(=O)(=O)N2CCC(C(=O)Nc3cccc(C)c3C)CC2)c1`: 1.35. Next, `CCOC(=O)c1ccc(NS(=O)(=O)c2ccc(SC)cc2)cc1`: -0.12; `CS(=O)(=O)N1CCC(C(=O)Nc2ccccc2)CC1`: 0.473.

Compound `O=C(Nc1ccc(OCC(F)(F)C(F)F)c(C(F)(F)F)c1)c1ccc(Cl)cc1` had a z-score of -0.245. To `O=C(NCC1COc2ccccc2O1)c1cc2ccccc2o1` (stereo not drawn) belongs -0.241. `CCOC(=O)c1cn(Cc2c(C)c(C)c(C)c(C)c2C)nn1`: the z-score is -0.301.

With `Cc1cc2c3c(c1C)C1(C(=O)N3C(C)(C)CC2C)C(C#N)=C(N)OC2=C1C(=O)CC(C)(C)C2` (stereo not drawn), the z-score stood at 0.16.

Consider `CCOCCCNC(=O)Cn1cc2c(n1)CCCCC2`, for which the z-score was -1.3. To `CC(=O)c1c(C)[nH]c(C(=O)OCC(=O)Nc2ccc(Cl)cc2[N+](=O)[O-])c1C` belongs -0.446; to `COC(=O)c1sc(NC(=O)c2cccc([N+](=O)[O-])c2)c(C(N)=O)c1C`, -0.343.

Consider `CCCCN(CCCC)c1ccc(C(=O)c2ccccc2C(=O)O)c(O)c1`, for which the z-score is active: -3.18. Next, `O=C(COC(=O)c1ccc(S(=O)(=O)Nc2ccccc2)cc1)NCc1ccco1`: -0.454.
